Source: PMC3139598
These are yes or no findings as the source states them, for the method shown. Binding seen in cells or lysates may run through a third protein. Some binding calls cover weakened binding; strength is not graded here. Sequences can lack the tags named with a protein.

B1: HA-X11L (from pcDNA3.1-HA-X11L) (protein, UniProt Q99767 1-749)
chain: MAHRKLESVGSGMLDHRVRPGPVPHSQEPESEDMELPLEGYVPEGLELAALRPESPAPEEQECHNHSPDGDSSSDYVNNTSEEEDYDEGLPEEEEGITYYIRYCPEDDSYLEGMDCNGEEYLAHSAHPVDTDECQEAVEEWTDSAGPHPHGHEAEGSQDYPDGQLPIPEDEPSVLEAHDQEEDGHYCASKEGYQDYYPEEANGNTGASPYRLRRGDGDLEDQEEDIDQIVAEIKMSLSMTSITSASEASPEHGPEPGPEDSVEACPPIKASCSPSRHEARPKSLNLLPEAKHPGDPQRGFKPKTRTPEERLKWPHEQVCNGLEQPRKQQRSDLNGPVDNNNIPETKKVASFPSFVAVPGPCEPEDLIDGIIFAANYLGSTQLLSERNPSKNIRMMQAQEAVSRVKRMQKAAKIKKKANSEGDAQTLTEVDLFISTQRIKVLNADTQETMMDHALRTISYIADIGNIVVLMARRRMPRSASQDCIETTPGAQEGKKQYKMICHVFESEDAQLIAQSIGQAFSVAYQEFLRANGINPEDLSQKEYSDIINTQEMYNDDLIHFSNSENCKELQLEKHKGEILGVVVVESGWGSILPTVILANMMNGGPAARSGKLSIGDQIMSINGTSLVGLPLATCQGIIKGLKNQTQVKLNIVSCPPVTTVLIKRPDLKYQLGFSVQNGIICSLMRGGIAERGGVRVGHRIIEINGQSVVATAHEKIVQALSNSVGEIHMKTMPAAMFRLLTGQETPLYI
B2: HA-X11 (from pcDNA3.1-HA-X11) (protein, UniProt Q02410 1-837)
chain: MNHLEGSAEVEVTDEAAGGEVNESVEADLEHPEVEEEQQQPPQQQHYVGRHQRGRALEDLRAQLGQEEEERGECLARSASTESGFHNHTDTAEGDVIAAARDGYDAERAQDPEDESAYAVQYRPEAEEYTEQAEAEHAEATHRRALPNHLHFHSLEHEEAMNAAYSGYVYTHRLFHRGEDEPYSEPYADYGGLQEHVYEEIGDAPELDARDGLRLYEQERDEAAAYRQEALGARLHHYDERSDGESDSPEKEAEFAPYPRMDSYEQEEDIDQIVAEVKQSMSSQSLDKAAEDMPEAEQDLERPPTPAGGRPDSPGLQAPAGQQRAVGPAGGGEAGQRYSKEKRDAISLAIKDIKEAIEEVKTRTIRSPYTPDEPKEPIWVMRQDISPTRDCDDQRPMDGDSPSPGSSSPLGAESSSTSLHPSDPVEASTNKESRKSLASFPTYVEVPGPCDPEDLIDGIIFAANYLGSTQLLSDKTPSKNVRMMQAQEAVSRIKMAQKLAKSRKKAPEGESQPMTEVDLFISTQRIKVLNADTQETMMDHPLRTISYIADIGNIVVLMARRRMPRSNSQENVEASHPSQDGKRQYKMICHVFESEDAQLIAQSIGQAFSVAYQEFLRANGINPEDLSQKEYSDLLNTQDMYNDDLIHFSKSENCKDVFIEKQKGEILGVVIVESGWGSILPTVIIANMMHGGPAEKSGKLNIGDQIMSINGTSLVGLPLSTCQSIIKGLKNQSRVKLNIVRCPPVTTVLIRRPDLRYQLGFSVQNGIICSLMRGGIAERGGVRVGHRIIEINGQSVVATPHEKIVHILSNAVGEIHMKTMPAAMYRLLTAQEQPVYI
B3: HA-X11L2 (from pcDNA3.1-HA-X11L2) (protein, UniProt O96018 1-575)
chain: MDFPTISRSPSGPPAMDLEGPRDILVPSEDLTPDSQWDPMPGGPGSLSRMELDESSLQELVQQFEALPGDLVGPSPGGAPCPLHIATGHGLASQEIADAHGLLSAEAGRDDLLGLLHCEECPPSQTGPEEPLEPAPRLLQPPEDPDEDSDSPEWVEGASAEQEGSRSSSSSPEPWLETVPLVTPEEPPAGAQSPETLASYPAPQEVPGPCDHEDLLDGVIFGARYLGSTQLVSERNPPTSTRMAQAREAMDRVKAPDGETQPMTEVDLFVSTKRIKVLTADSQEAMMDHALHTISYTADIGCVLVLMARRRLARRPAPQDHGRRLYKMLCHVFYAEDAQLIAQAIGQAFAAAYSQFLRESGIDPSQVGVHPSPGACHLHNGDLDHFSNSDNCREVHLEKRRGEGLGVALVESGWGSLLPTAVIANLLHGGPAERSGALSIGDRLTAINGTSLVGLPLAACQAAVRETKSQTSVTLSIVHCPPVTTAIIHRPHAREQLGFCVEDGIICSLLRGGIAERGGIRVGHRIIEINGQSVVATPHARIIELLTEAYGEVHIKTMPAATYRLLTGQEQPVYL

biological target: FLAG-APP695 (from pcDNA3-FLAG-APP695) (UniProt P05067); assay: co-IP; N2a cells co-transfected with pcDNA3-FLAG-APP695 and HA-X11, HA-X11L or HA-X11L2; lysates immunoprecipitated with anti-FLAG antibody; blot with anti-HA and anti-FLAG

binding, binds:
B1
B2
B3
